About 14,000 (4.5%) of roughly 310,000 compounds showed an effect of 50% or more. The effect is printed as a negative number. This is one part of the list.
Biological target: human ether-à-go-go-related gene (hERG) potassium channel (human, UniProt Q12809)
Assay: primary screen, population patch clamp on CHO cells stably expressing hERG
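Further: peak tail current of the secondary pulse compared with the same well before compound.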

Sequence of human ether-à-go-go-related gene (hERG) potassium channel (Q12809 whole entry, looked up): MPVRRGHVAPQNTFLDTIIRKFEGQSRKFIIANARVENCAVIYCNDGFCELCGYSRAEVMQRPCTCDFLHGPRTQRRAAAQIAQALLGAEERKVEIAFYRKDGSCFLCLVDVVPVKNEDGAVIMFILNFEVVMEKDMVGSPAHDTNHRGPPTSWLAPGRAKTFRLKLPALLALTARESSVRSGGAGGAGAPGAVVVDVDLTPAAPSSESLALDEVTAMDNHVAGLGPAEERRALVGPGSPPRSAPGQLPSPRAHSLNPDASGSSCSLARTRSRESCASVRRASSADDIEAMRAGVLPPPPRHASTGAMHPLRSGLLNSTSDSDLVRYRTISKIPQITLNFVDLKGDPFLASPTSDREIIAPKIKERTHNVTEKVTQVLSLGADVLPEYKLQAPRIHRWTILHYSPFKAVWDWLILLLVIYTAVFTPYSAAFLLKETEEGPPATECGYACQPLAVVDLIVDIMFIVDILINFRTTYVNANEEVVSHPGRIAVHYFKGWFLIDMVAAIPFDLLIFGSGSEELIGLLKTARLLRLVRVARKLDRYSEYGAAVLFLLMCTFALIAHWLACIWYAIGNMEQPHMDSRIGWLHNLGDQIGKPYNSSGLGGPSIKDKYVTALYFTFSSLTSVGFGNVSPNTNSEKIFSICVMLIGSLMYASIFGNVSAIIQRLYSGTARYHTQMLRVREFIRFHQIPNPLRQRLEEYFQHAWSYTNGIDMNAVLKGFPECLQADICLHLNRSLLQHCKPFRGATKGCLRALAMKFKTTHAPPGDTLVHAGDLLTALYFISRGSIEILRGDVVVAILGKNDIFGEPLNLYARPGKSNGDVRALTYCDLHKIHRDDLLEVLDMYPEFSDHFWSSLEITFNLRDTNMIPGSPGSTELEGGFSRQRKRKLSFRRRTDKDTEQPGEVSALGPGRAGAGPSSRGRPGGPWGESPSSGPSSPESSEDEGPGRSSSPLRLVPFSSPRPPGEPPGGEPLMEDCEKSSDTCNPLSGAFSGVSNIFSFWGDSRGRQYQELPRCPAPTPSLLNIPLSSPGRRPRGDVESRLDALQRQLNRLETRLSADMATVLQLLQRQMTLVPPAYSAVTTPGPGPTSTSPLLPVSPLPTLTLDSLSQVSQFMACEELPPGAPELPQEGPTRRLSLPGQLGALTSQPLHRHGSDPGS

| SMILES | hERG current change (%, negative = inhibition) at 10uM [%] |
| --- | --- |
| Cn1c(=O)oc2cc(S(=O)(=O)N3CCN(c4ccccc4F)CC3)ccc21 | 6.2 |
| COc1ccc(F)cc1C(=O)C1CCCN(C(=O)C2=C(C)OCCO2)C1 (stereo not shown) | 1.15 |
| N#Cc1c(-c2ccc3c(c2)OCO3)csc1N | 11.7 |
| O=C(CN(C(=O)CNC(=O)c1ccco1)c1ccc(Cl)c(Cl)c1)NC1CCCCC1 | -27.2 |
| COc1ccccc1CCc1nnc(CCC(=O)NCC[C@@H]2C[C@@H]3C=C[C@H]2C3)o1 | -22.6 |
| Cc1ccccc1-c1nc(CS(=O)(=O)CC(=O)NCc2ccc3c(c2)OCO3)c(C)o1 | 1.45 |
| COCc1cc(C)nc2sc(C(=O)Nc3ccccc3OC)c(N)c12 | 15.2 |
| Cc1ccc(/C=C(\C#N)C(=O)NC(C)C)o1 | 7.19 |
| Cc1ccc(C(=O)Nc2ccncc2)cc1S(=O)(=O)N1CCOCC1 | -4.42 |
| COC(=O)c1ccc(C(=O)NC(=S)Nc2ccc3nc(SC)sc3c2)cc1 | 7.84 |
| O=C(CN1CCC(C(=O)c2cccc(Cl)c2)CC1)Nc1cccc(C(=O)O)c1 | 12.3 |
| Oc1ccc(-c2n[nH]c(=S)n2Cc2ccccc2)cc1 | 0.371 |
| Cc1ccc(-n2ncc3c2CCCC3NC(=O)c2ccoc2)cc1C (stereo not shown) | -79.2 |
| COc1ccc(-c2[nH]ncc2CN2CCC(C(=O)N3CCOCC3)CC2)c(F)c1 | 5.23 |
| CC(=O)NN1C(=O)/C(=C\c2ccc(C)cc2)SC1=S | 17 |
| COc1ccc(OCCSc2ncnc3nc[nH]c23)cc1 | 2 |
| Cc1ccc(C(=O)C2CCN(CC(=O)Nc3ccccc3C)CC2)cc1 | -68.9 |
| Cc1c(C(C)C[C@H](C)O)oc(=O)c2c1Oc1c(C)c(C(C)C[C@H](C)O)oc(=O)c1C2 (stereo partly shown) | 12.9 |
| CCOc1ccc(N(Cc2ccc(C(=O)O)cc2)S(=O)(=O)c2ccc(C)cc2)cc1 | -12.5 |
| O=C(c1cc(C2CC2)on1)N1CCCC(N2CCN(c3cccc(C(F)(F)F)c3)CC2)C1 (stereo not shown) | -48.7 |
| O=C(CN1C(=O)NC2(CCCC2)C1=O)Nc1ccc(Cl)c(C(F)(F)F)c1 | 6.9 |
| CCSc1nnc(Cc2cc(=O)[nH]c(=O)[nH]2)n1-c1cc(C)ccc1C | 14.5 |

| SMILES | hERG current change (%, negative = inhibition) at 10uM [%] |
| --- | --- |
| CCOC(=O)C1CCN(C(=O)Cn2cc(C(=O)OC)c3ccccc32)CC1 | 0.668 |
| Cc1ccsc1C(=O)N1CCCC(CCC(=O)N2CCN(c3ccccn3)CC2)C1 (stereo not shown) | -6.72 |
| CCc1cc(C(=O)Nc2cc(S(=O)(=O)N(CC)CC)ccc2N2CCN(C)CC2)sc1C | -7.6 |
| Cc1oc(-c2ccc3c(c2)OCCO3)cc1C(=O)NCC(=O)O | -2.8 |
| COCCNC(=O)CS(=O)Cc1nc(-c2ccc(Cl)cc2)oc1C (stereo not shown) | 7.83 |
| CCC(=O)N(CCN1CCOCC1)Cc1cc2cc3c(cc2nc1Cl)OCO3 | -21.6 |
| CC(NC(=O)C1CC1)c1ccc(-c2ccccc2)cc1 (stereo not shown) | -2.32 |
| CCOC(=O)N1CCN(Cc2nc(N)nc(Nc3ccc(C)cc3C)n2)CC1 | -16.7 |
| O=C(Nc1ccc(Nc2ccccc2)cc1)c1ccc(Br)cc1 | 9.51 |
| COc1ccc(Cl)cc1C(=O)NNC(=O)CN1C(=O)C2CC=CCC2C1=O (stereo not shown) | 14.3 |
| COc1ccc(C(=O)/C=C/N(C)C)cc1OC | 7.92 |
| Cc1cc(C(=O)CSc2nn3c(=O)c(C(C)(C)C)nnc3s2)c(C)n1C1CC1 | 22.4 |
| Cc1ccc(S(=O)(=O)N2CCN(C(=O)n3ccnc3)CC2)cc1 | -5.76 |
| Cc1ccc(NC(=O)CSc2nc(N)c3cc4c(nc3n2)CCCC4)cc1 | -2.94 |
| COC(=O)c1ccc(-n2cc(-c3ccc(OC)cc3)[nH]c2=S)cc1 | 33.1 |
| COc1ccc(S(=O)(=O)N2CCC(C(=O)NCCc3ccccc3)CC2)cc1 | 1.17 |
| CN(CCc1ccccn1)C1CCCN(S(=O)(=O)c2ccc(F)c(Cl)c2)C1 (stereo not shown) | -48 |
| CS(=O)(=O)O.Oc1ccc(C2CNCCc3c2cc(O)c(O)c3Cl)cc1 (stereo not shown) | -6.31 |
| CCOC(=O)C(NC(=O)CC)(N1CCc2ccccc2C1)C(F)(F)F (stereo not shown) | -3 |
| CCN(CC)c1ccc(/C=c2/sc3nnc(-c4ccccc4C)n3c2=O)cc1 | 8.65 |
| C(=N\Nc1ccc2nncn2n1)/c1ccccn1 | 17.9 |
| Cc1ccc2nc(-c3ccncc3)c(NC3CCCCC3)n2c1 | 9.35 |

| SMILES | hERG current change (%, negative = inhibition) at 10uM [%] |
| --- | --- |
| CCCCN1CC(=O)N2[C@H]3c4ccc(OC)cc4OC[C@@H]3[C@H](C(=O)OCC)[C@]2(C)C1=O | 7.39 |
| CNC(C)c1ccc(S(N)(=O)=O)cc1 (stereo not shown) | 25 |
| Cc1nnc(SCCC(=O)Nc2ccc(F)cc2)s1 | -3.32 |
| COc1ccc(C2C(C(C)=O)=C(O)C(=O)N2c2nc3ccccc3s2)cc1OC (stereo not shown) | 19.6 |
| O=C(O)c1cccc(NS(=O)(=O)c2ccc3c(c2)C(=O)c2ccccc2C3=O)c1 | 11.3 |
| Cc1cnc(C(=O)NCC(c2ccccc2)c2ccccc2)cn1 | 1.44 |
| Cc1ccc[n+](CC(=O)Nc2ccc([N+](=O)[O-])cc2)c1.[Cl-] | 10.9 |
| Cc1cccc(NNC(N)=S)c1 | 17.7 |
| CCNC(=O)C1(c2ccccc2)CCCC1 | -7.36 |
| CCOC(=O)C(C)NC(=O)Cn1ncc2c(=O)oc3ccc(C)cc3c21 (stereo not shown) | -8.99 |
| CNC(=O)c1ccc(Nc2nnc(-c3ccc(C)c(S(N)(=O)=O)c3)c3ccccc23)cc1 | 5.67 |
| O=S(=O)(Nc1ccccc1Cl)c1ccc(NS(=O)(=O)c2cccs2)cc1 | -10.8 |
| C=CCn1c(SCC(=O)Nc2ccccc2CC)nnc1-c1ccncc1 | -11.1 |
| Cc1ccc(OCc2cn3cccnc3n2)cc1 | 0.869 |
| COc1cc(CO)cc(Br)c1OCC(=O)Nc1cccc2ccccc12 | -7.04 |
| CC(=O)Oc1ccc2c(=O)c(N3C(=O)c4ccccc4C3=O)c(C)oc2c1C | 2.68 |
| CCn1c(SCc2ccc(OC)cc2)nnc1-c1ccncc1 | -18.9 |
| CCOC(=O)CSc1nnc(NC(=O)CCc2ccccc2)s1 | 17 |
| O=C(Nc1ccc(Cl)c([N+](=O)[O-])c1)ONC1=NCCCCC1 | 2.02 |
| CCC(=O)N1CCN(c2ccc(NC(=O)COc3ccccc3[N+](=O)[O-])cc2)CC1 | 13.5 |
| O=C1CS/C(=N/N=C/c2ccccc2)N1c1ccc(O)cc1 | 17.6 |
| O=C(c1ccccc1F)N(Cc1ccc(F)cc1)C1CCS(=O)(=O)C1 (stereo not shown) | 1.9 |

| SMILES | hERG current change (%, negative = inhibition) at 10uM [%] |
| --- | --- |
| C#CC(CO)N(CCN(Cc1ccccc1)C(C#C)CO)Cc1ccccc1 (stereo not shown) | -18.1 |
| CCOc1ccc(CN2CCC(n3nccc3NC(=O)C3CC3)CC2)cc1CO | -57.1 |
| COc1ccc(Cc2nc(-c3ccc(-n4cccc4)cc3)no2)cc1OC | 0.17 |
| Cc1ccc(Sc2cc(NCCCO)c([N+](=O)[O-])c3nonc23)cc1 | 16 |
| N/C(=N\OS(=O)(=O)c1ccccc1)c1cccnc1 | 9.41 |
| O=C(CNc1cccc([N+](=O)[O-])c1)NCCCc1ccccc1 | -49 |
| O=c1cc(CSc2nnc(-c3cccnc3)n2-c2ccccc2F)nc2sccn12 | -4.15 |
| COc1ccc(C2=NCN(c3ccc(C)cc3)C(=S)N2)cc1 | 5.56 |
| Cc1cccc(NS(=O)(=O)c2cccc(C(=O)NCCCN3CCCC3=O)c2)c1 | -1.94 |
| Cc1ccc(C)c(NC(=O)Cc2ccc(S(=O)(=O)N3CCCCC3)s2)c1 | -19 |
| COc1ccc(S(=O)(=O)N(CC(=O)NC2CC2)Cc2ccccc2)cc1 | -1.99 |
| COc1ccccc1N1CCN(C(=O)CNC(=O)c2ccc(Cl)cc2Cl)CC1 | -16.2 |
| Cc1ccc(-n2c(CCC(=O)O)ccc2-c2cccs2)cc1 | -1.29 |
| Cc1cc(C)cc(N(CC(=O)Nc2cccc(C)c2C)S(=O)(=O)c2c(C)[nH]c(=O)[nH]c2=O)c1 | -0.837 |
| CCCC(=O)OCC(=O)Nc1cc(C(C)(C)C)nn1-c1ccccc1 | -35.1 |
| O/N=C1/CC/C(=N\O)c2nn(-c3ccccc3)nc21 | 14 |
| CC1CN(C(=O)COC(=O)c2ccc(Cl)c(S(=O)(=O)N3CCCCC3)c2)CC(C)O1 (stereo not shown) | -13.4 |
| COC(=O)c1ccc(NC(CC(C)C)C(=O)OC)c([N+](=O)[O-])c1 (stereo not shown) | -10.4 |
| CC(C)(C)n1nnnc1C(c1ccc(Cl)cc1)N1CCSCC1 (stereo not shown) | -0.553 |
| COc1ccc(S(=O)(=O)Nc2ccccc2C)cc1C(=O)N1CCOCC1 | 12.9 |
| COc1ccccc1N1C(=O)CC(=O)NC1=O | 20.5 |
| COc1ccc(NC(=O)C2CC(=O)N(c3ccccc3C)C2)c(OC)c1 (stereo not shown) | 13.4 |
